# In all, about 52,000 compounds went through this assay and about 1,700 (3.3%) were called active. Cut-off read from the data, not from the text of the source: active = survival mostly below about 52% (no sharp cut-off); inactive = mostly above about 56%. Some of the results follow.
# Tested on: Wild type
# Test: S. aureus survival, RN4220 and DeltatarO strains – OD600, teichoic acid synthesis inhibitors, primary screen (AID 463173)
# Settings: S. aureus RN4220 wild type/DeltatarO growth, OD600, 18 h, hits give low values, screened at 18.75 µg/mL (by protocol)
row,SMILES,survival
1,COc1ccc(NC(=O)c2oc3ccccc3c2NC(=O)Cc2cccs2)cc1,inactive: 90%
2,CCOC(=O)c1cnc2ccc(C)cc2c1NCCc1ccc(OC)c(OC)c1,inactive: 117%
3,Cc1ccc(NC(=O)c2sc3nc(-c4ccc(F)cc4)ccc3c2N)cc1F,inactive: 91%
4,O=C(CN1C(=O)CSc2ccc(S(=O)(=O)N3CCCC3)cc21)NCc1ccc(Cl)cc1,inactive: 52%
5,COc1ccc(NC(=O)CN2C(=O)COc3ccc(S(=O)(=O)N4CCCCC4)cc32)cc1Cl,inactive: 86%
6,O=S(=O)(Cc1ccccc1)N1CCN(Cc2ccco2)CC1,inactive: 111%
7,CCSC(=C(C#N)C#N)c1cc2c([nH]1)CCCC2,inactive: 116%
8,COc1ccc(C)cc1NC(=O)N1CCN(c2cc(-c3noc(C)n3)ccc2C)CC1,inactive: 85%
9,CC1CCCCC1NC(=O)CN1CCC(NC(=O)c2cccc(F)c2)CC1 (stereo unspecified),inactive: 112%
10,CCC1CCCCN1CCCNC(=O)c1ccc2c(c1)N(Cc1ccc(Cl)cc1)C(=O)c1ccccc1S2(=O)=O (stereo unspecified),inactive: 113%
11,COc1ccccc1N1CCN(c2ccc(-c3nc(-c4ccccc4)no3)cc2[N+](=O)[O-])CC1,inactive: 85%
12,O=C(Cn1cc(C(=O)C2CC2)c2ccccc21)Nc1ccc(Br)cc1,inactive: 103%
13,CCN1C(=O)/C(=C2/Sc3ccc(OC)cc3N2CC)SC1=Nc1ccc2c(c1)OCCO2,inactive: 98%
14,C[n+]1ccccc1C(O)Cc1ccncc1 (stereo unspecified),inactive: 120%
15,Cc1ccc(C)c(Cn2c(=O)n(CCCCCC(=O)NCc3ccc4c(c3)OCO4)c(=O)c3sccc32)c1,inactive: 102%
16,CC(=O)c1ccc(NC(=O)CCCc2nc(-c3cccc(C)c3)no2)cc1,inactive: 74%
17,COc1ccc(C2CC(=O)c3c(C)nc(N4CCN(C=O)CC4)nc3C2)c(OC)c1 (stereo unspecified),inactive: 94%
18,CCn1c(=O)sc2cc(NC(=O)c3cccc(OC)c3)ccc21,inactive: 62%
19,O=C(Cn1ccn(-c2ccc(F)c(F)c2)c(=O)c1=O)c1ccc(F)cc1,inactive: 86%
20,CC(C)c1nn2c(=O)cc(COC(=O)CNC(=O)c3ccccc3Cl)nc2s1,inactive: 140%
21,CCN(CC)C(=O)C1CCN(S(=O)(=O)c2ccc(C)cc2)CC1,inactive: 113%
22,CCN1CCN(c2nnc(-n3cccc3C(=O)Nc3cccc(OC)c3)s2)CC1,inactive: 79%
23,Cc1ccc2[nH]c(=O)c(CN(C(=O)NC3CCCCC3)C3CCCCC3)cc2c1,inactive: 98%

row,SMILES,survival
1,CC(=O)NC(Cc1cccc(C)c1)C(=O)NC1CCN(c2nc(C)cc(C)c2C#N)CC1 (stereo unspecified),inactive: 98%
2,CCOc1ccc(Cn2c(CNS(=O)(=O)c3c(C)cc(C)cc3C)nc3cccnc32)cc1,inactive: 47%
3,CCC(C)n1c(SCc2ccc(C(C)(C)C)cc2)nc2ccsc2c1=O (stereo unspecified),inactive: 55%
4,Cc1nnc(NC(=O)CSc2nccn2-c2ccc(Cl)cc2)s1,inactive: 126%
5,O=C(CCC1CCCC1)Nc1ccc2c(c1)OCO2,inactive: 106%
6,NC(=O)CSc1nsc(SCC(N)=O)n1,inactive: 109%
7,O=S(=O)(c1ccccc1)c1nc(-c2cccs2)oc1SCc1ccccc1Cl,inactive: 68%
8,Cc1ccc(OCc2nc(-c3ccc(C(=O)N4CCN(c5cc(Cl)ccc5C)CC4)cc3)oc2C)cc1,inactive: 70%
9,COC(=O)c1ccc(C(=O)OC)c(NC(=O)N2CC3CCCN3c3ccccc32)c1 (stereo unspecified),inactive: 85%
10,CCOC(=O)CC(=O)CSc1nc2ccccc2c(=O)n1-c1ccc(C(=O)NCCOC)cc1,inactive: 73%
11,N#Cc1c(NC(=O)C(F)(F)F)oc(-c2ccccc2)c1-c1ccccc1,inactive: 43%
12,Cc1ccc(Cl)cc1N1CCN(C(=O)c2cc3c(=O)n(C)c4ccccc4c3s2)CC1,inactive: 62%
13,CCOc1ccccc1NC(=O)CSc1nc2c([nH]c3ccccc32)c(=O)n1-c1ccccc1,inactive: 75%
14,O=C(CC1NCCNC1=O)Nc1ccccc1F (stereo unspecified),inactive: 92%
15,CCOC(=O)c1c(-c2ccc(C)cc2)csc1NC(=O)c1cc(=O)c2cc(Cl)ccc2o1,inactive: 115%
16,O=C(C1CC1)N1CCc2cc(Br)cc(S(=O)(=O)N3CCN(c4cccc(Cl)c4)CC3)c21,inactive: 84%
17,Cc1ccc2nc(COc3cccc(NC(=O)COc4ccccc4F)c3)cc(=O)n2c1,inactive: 130%
18,CCOC(=O)c1cc(-c2ccccc2)n(-c2cccc(C(=O)Nc3cccc(C)c3)c2)c1C,inactive: 121%
19,O=C(Nc1ccc2nc(SCC(=O)N3CCCC3)sc2c1)c1ccc(Br)cc1,inactive: 118%
20,Cc1ccc(CSc2ccc3nnc(CCNS(=O)(=O)c4ccc(C)cc4)n3n2)cc1,inactive: 82%
21,Cc1cccc(OCC(=O)OCc2cc(=O)n3nc(-c4cccs4)sc3n2)c1,inactive: 72%
22,Cc1ccc(-n2ncc(C(=O)N3CCN(c4ccccn4)CC3)c2C2CCN(C(=O)OC(C)(C)C)CC2)cc1,inactive: 68%
23,O=C(NCc1ccccc1)c1nc[nH]c1C(=O)NCc1ccccc1,inactive: 123%

row,SMILES,survival
1,CCC(C)NC(=O)Cn1c(=O)n(-c2ccc(Cl)c(Cl)c2)c(=O)c2c(C)c(C(=O)N(CC)CC)sc21 (stereo unspecified),inactive: 49%
2,Cc1cccc(NC2=NCC(=O)N2Cc2ccccc2)c1,inactive: 102%
3,CCc1nn(Cc2cccc(F)c2)c(=O)c2cc3cc(C)ccc3n12,inactive: 31%
4,COc1ccc(CN(C(=O)c2cc3sccc3n2C)C2CC(C)(C)NC(C)(C)C2)cc1,inactive: 121%
5,Cc1ccc(NC(=O)c2cc(S(=O)(=O)N3CCCc4ccccc43)ccc2F)cc1F,inactive: 97%
6,COc1ccc(Nc2c(-c3ccc(C)o3)nc3ccc(Cl)cn23)cc1,inactive: 87%
7,COC(=O)c1ccccc1NC(=O)Cn1c(=O)nc(-c2ccccc2)c2cc(Cl)ccc21,inactive: 72%
8,Cc1cc(Nc2ccc(C(=O)O)cc2)nc(N)n1,inactive: 103%
9,Cc1cccc(C)c1Nc1c(-c2cccs2)nc2ncccn12,inactive: 72%
10,CCS(=O)(=O)N1CCC(NC(=O)c2ccccc2Cl)CC1,inactive: 127%
11,Cc1oc(CC(C)C)cc1C(=O)O,inactive: 110%
12,CCCCC(=O)Nc1cc2nn(-c3ccc(OCC)cc3)nc2cc1C,inactive: 78%
13,Cc1ccc(OCC(=O)Nc2cc(-c3nc4ccccc4[nH]3)ccc2C)c(C)c1,inactive: 107%
14,NNC(=O)c1ccc2[nH]c3c(c2c1)CCCC3,inactive: 114%
15,c1ccc(CCN2CNc3nc4ccccc4n3C2)cc1,inactive: 108%
16,Cc1cccc(Cn2cc(S(=O)(=O)c3ccc(Cl)cc3)c(=O)c3cc4c(cc32)OCO4)c1,inactive: 98%
17,CC(=O)c1ccc(NC(=O)c2ccc(NC(=O)CCS(=O)(=O)c3cccs3)cc2)cc1,inactive: 72%
18,Cc1cccc(OCCSc2nc3ccc(NC(=O)c4cccs4)cc3s2)c1,inactive: 65%
19,O=C(c1ccco1)N1CCN(C(=O)C2CCCN(S(=O)(=O)Cc3ccccc3)C2)CC1 (stereo unspecified),inactive: 101%
20,CS(=O)(=O)N1CCC(n2c(C(F)(F)F)nc3cccnc32)CC1,inactive: 60%
21,CCn1c(Cc2ccccc2)nnc1SCC(=O)N1CCCCC1C (stereo unspecified),inactive: 116%
22,Cn1c(=O)c2c(SCC(=O)NCC3CCCO3)nc(-c3cccc(F)c3)nc2n(C)c1=O (stereo unspecified),inactive: 85%
23,Cc1ccc(NC(=O)c2c(C(=O)Nc3ccccc3)sc3nc(C)cc(=O)n23)c(C)c1,inactive: 88%

row,SMILES,survival
1,CCOC(=O)CSc1nc(-c2ccccc2)cc(C(F)(F)F)c1C#N,inactive: 85%
2,Cc1nn(-c2ccccc2)c(OC(=O)c2ccc(F)cc2)c1S(=O)(=O)c1ccccc1,inactive: 59%
3,Fc1ccc(N=C(CN2CCCCC2)N2CCCCC2)cc1,inactive: 108%
4,CCn1c(CN2CCCCC2)nc2cc(NC(=O)c3ccccc3[N+](=O)[O-])ccc21,inactive: 83%
5,CSc1ncc(C(=O)NCc2ccc(Cl)cc2)c(C(F)(F)F)n1,inactive: 74%
6,CCCn1cc(S(=O)(=O)c2ccc(C)cc2)c(=O)c2cc(OC)c(OC)cc21,inactive: 77%
7,COc1cccc(NC(=O)C(=O)NCCc2csc(-c3ccc(C)cc3)n2)c1,inactive: 85%
8,COc1ccc(C2=C(C)C(N3CCC(C(=O)Nc4cc(C)ccc4C)CC3)=NS2(=O)=O)cc1,inactive: 55%
9,CCN(C(=O)CCNC(=O)Cn1cnc2ccccc2c1=O)c1cccc(Cl)c1,inactive: 83%
10,CCOc1ccc(C(=O)Nc2ccc(C(=O)OCc3cc(=O)n4ccsc4n3)cc2)cc1,inactive: 87%
11,O=C(Nc1cccc2cccnc12)c1cccc2ccccc12,active: 1%
12,CCOC(=O)c1ccc(NC(=O)c2csc3c2CCCC3)cc1,inactive: 26%
13,COC(=O)c1ccc(Cl)cc1NC(=O)NCc1c(-n2cccc2)sc2c1CCCC2,inactive: 79%
14,O=C(NC1C2CCCC1CN(C1CC1)C2)c1ccc(Cl)cc1 (stereo unspecified),inactive: 105%
15,c1ccc(Cn2ncc3c(N4CCCCC4)ncnc32)cc1,inactive: 109%
16,Cc1ccc(CNC(=O)Cn2ncc3c([nH]c4ccc(C)cc43)c2=O)cc1,inactive: 79%
17,COc1cccc(N2CCN(C(=O)c3cc4c(=O)n(Cc5cccs5)ccc4nc3C)CC2)c1,inactive: 69%
18,COc1ccccc1NC(=O)CN1C(=O)CC(c2ccc(C)c(C)c2)=Nc2ccccc21,inactive: 77%
19,N#CCSc1cccc2cccnc12,inactive: 103%
20,CC1Oc2ccccc2N(CC(=O)Nc2ccccc2F)C1=O (stereo unspecified),inactive: 109%
21,Cc1cccc(NC(=O)Cn2cnc(S(=O)(=O)N3CCCC3)c2)c1C,inactive: 68%
22,Nc1cc(N)nc(SCc2noc(-c3ccc(Cl)cc3)n2)n1,inactive: 112%

# — PubChem BioAssay AID463173 (ICCB-Longwood Screening Facility, Harvard Medical School, 2010)
